In a collection of fitness landscapes (doi:10.1126/science.1257360):
The list shows a part of the results.

B1: PhoQ; a variant is named by its letters at X, in order, P23837 (parent)
chain: MKKLLRLFFPLSLRVRFLLATAAVVLVLSLAYGMVALIGYSVSFDKTTFRLLRGESNLFYTLAKWENNKLHVELPENIDKQSPTMTLIYDENGQLLWAQRDVPWLMKMIQPDWLKSNGFHEIEADVNDTSLLLSGDHSIQQQLQEVREDDDDAEMTHSVAVNVYPATSRMPKLTIVVVDTIPVELKSSYMVWSWFIYVLSANLLLVIPLLWVAAWWSLRPIEALAKEVRELEEHNRELLNPATTRELTSLVRNLNRLLKSERERYDKYRTTLTDLTHSLKTPLXXLQXXLRSLRSEKMSVSDAEPVMLEQISRISQQIGYYLHRASMRGGTLLSRELHPVAPLLDNLTSALNKVYQRKGVNISLDISPEISFVGEQNDFVEVMGNVLDNACKYCLEFVEISARQTDEHLYIVVEDDGPGIPLSKREVIFDRGQRVDTLRPGQGVGLAVAREITEQYEGKIVAGESMLGGARMEVIFGRQHSAPKDE

Variants of: B1
Experiment: enrichment ratio after two sorts for PhoP signalling (ratio (wild type AVST 3.29)); higher = more functional
Conditions: with PhoP (E. coli)

Variant	enrichment ratio
AFYI	≤ 0.25
SNAE	7.95
VMAG	≤ 0.25
WRFG	≤ 0.25
NRMP	≤ 0.25
FWQE	≤ 0.25
NVAH	≤ 0.25
IPML	≤ 0.25
GWAF	≤ 0.25
DYCQ	≤ 0.25
TNWQ	≤ 0.25
QCRP	≤ 0.25
HAGT	≤ 0.25
NRYP	≤ 0.25
HGRL	≤ 0.25
QYID	≤ 0.25
WSDG	≤ 0.25
TKAF	≤ 0.25
RFSV	≤ 0.25
QPLS	≤ 0.25
SMDI	≤ 0.25
KMIL	≤ 0.25
ITVD	≤ 0.25
ESFD	≤ 0.25
NDSY	≤ 0.25

Variant	enrichment ratio
YQTQ	≤ 0.25
KDGG	≤ 0.25
ICST	≤ 0.25
LKEM	≤ 0.25
QLQM	≤ 0.25
YWWL	≤ 0.25
RACQ	≤ 0.25
WEAN	≤ 0.25
DFYQ	≤ 0.25
MPFF	≤ 0.25
SWVH	≤ 0.25
TMYF	≤ 0.25
MQPY	≤ 0.25
WERF	≤ 0.25
KAAY	≤ 0.25
DTHC	≤ 0.25
NSGV	≤ 0.25
TAVF	≤ 0.25
AYNN	≤ 0.25
QMCW	≤ 0.25
WMRW	≤ 0.25
PINP	≤ 0.25
DSSP	≤ 0.25
EEYR	≤ 0.25
TMQQ	5.11

Variant	enrichment ratio
LEYQ	≤ 0.25
EFYR	≤ 0.25
EDPK	≤ 0.25
FRYR	≤ 0.25
MNMC	3.1
QHRR	≤ 0.25
YDAE	≤ 0.25
TLLI	0.644
TCLS	7.88
WSQG	≤ 0.25
FSQW	≤ 0.25
HMCR	≤ 0.25
GVAS	0.335
ITTR	≤ 0.25
FRFE	≤ 0.25
QAHD	≤ 0.25
DERP	≤ 0.25
LAWG	≤ 0.25
ANRV	≤ 0.25
FRAR	≤ 0.25
NNRP	≤ 0.25
VCIV	≤ 0.25
DIQF	≤ 0.25
NYVH	≤ 0.25
VFRA	≤ 0.25

Variant	enrichment ratio
TWCS	≤ 0.25
ESCL	≤ 0.25
TNMW	≤ 0.25
TYIA	≤ 0.25
YKDN	≤ 0.25
SFTY	≤ 0.25
KQVK	≤ 0.25
LREE	≤ 0.25
WKYS	≤ 0.25
IYRT	≤ 0.25
MMPR	≤ 0.25
AGDT	≤ 0.25
GMSI	1.75
PQRH	≤ 0.25
VMMH	≤ 0.25
VMPP	≤ 0.25
DEPH	≤ 0.25
FFHK	≤ 0.25
DEHY	≤ 0.25
KRSF	≤ 0.25
VYCG	≤ 0.25
IMPA	≤ 0.25
AHAC	≤ 0.25
